Here are results for one molecule from patent US20130122005A1, “ANTICANCER COMBINATION THERAPY” (priority 2011, published 2013).

Data set [1] concerns the target T1, mouse IGF-1 (Mus musculus, UniProt P05017).
T1 construct: Insulin-like growth factor-1 (IGF-1; a 70 amino-acid polypeptide); purchased R&D Systems 791-MG
The data set can be described thus: Direct immunosorbent assay (ELISA), mouse IGF-1. Format: binding. Conditions: up to 50 ng/ml. The protocol: (§1) Fully human IgG1 antibodies that bound with high affinity to IGF-1 are also tested for binding to human IGF-1 in direct immunosorbent assays (ELISA). Assays are performed by coating human IGF-1 (R&D Systems, No. 291-G1) to 96-well Maxisorb plates at a concentration of 0.5 μg/ml overnight at 4° C. (100 μl/well). Coating buffer alone is used as a control for unspecific binding. Wells are then washed once with washing buffer (1×TBS-T) and residual binding sites are blocked with 200 μl blocking buffer for 1 hour at room temperature on an orbital shaker followed by a further wash cycle. Serial three-fold dilutions of each test antibody in blocking buffer are prepared directly on the coated plates. Typical concentrations used are 50, 16.6, 5.6, 1.8, 0.6, 0.2, and 0.07 ng/ml. Blocking buffer alone is used as a positive control. The plates are then incubated for 2 hours at room temperature with agitation. After three wash cycles 100 μl/well of HRPO-conjugated anti-human IgG secondary reagent (Jackson ImmunoResearch Inc.) diluted in blocking buffer is added to all wells. After 2 hours incubation at room temperature with agitation the plates are washed three-times and 100 μl/well of TMB substrate solution (equal amounts of solution A and B) are pipetted into all wells. The plates are incubated for 10-20 min at RT with agitation and then the reaction is stopped by addition of 100 μl/well 1 M phosphoric acid. The absorbance is measured at a wavelength of 450 nm (reference 650 nm).
(§2) Binding of the fully human IGF-1 binding IgG1 antibodies to mouse IGF-1 (R&D Systems, No. 791-MG), rat IGF-1 (IBT, No. RU100), human IGF-2 (GroPep, No. FM001), mouse IGF-2 (R&D Systems, No. 792-MG), rat IGF-2 (IBT, No. AAU100), and human insulin (Roche) is also tested as described above for human IGF-1 (except that the concentration of human insulin used for coating is 3 μg/ml).
(In an ELISA, binding on a coated surface is turned into a signal by an enzyme label.)

Data set [2] has as its target T2, rat IGF-1 (Rattus norvegicus, UniProt P08025).
T2 construct: Insulin-like growth factor-1 (IGF-1; a 70 amino-acid polypeptide); purchased IBT RU100
The data set can be described thus: Direct immunosorbent assay (ELISA), rat IGF-1. The settings on record: up to 50 ng/ml. Format: binding. Here is the method:
as §1, §2

The target in data set [3] is T3, human IGF-2 (Homo sapiens, UniProt P01344).
T3 construct: insulin-like growth factor-2 (IGF-2; a 67 amino-acid polypeptide)
T3 sequence (P01344 25-91 limits assumed): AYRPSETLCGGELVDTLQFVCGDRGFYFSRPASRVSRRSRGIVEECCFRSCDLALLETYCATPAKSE
As to the kind of experiment: Direct immunosorbent assay (ELISA), human IGF-2. Format: binding. The settings on record: up to 50 ng/ml. The protocol:
as §1, §2

Data set [4] addresses T4, mouse IGF-2 (Mus musculus, UniProt P09535).
T4 construct: insulin-like growth factor-2 (IGF-2; a 67 amino-acid polypeptide)
The data set can be described thus: Direct immunosorbent assay (ELISA), mouse IGF-2. Format: binding. The settings on record: up to 50 ng/ml. The protocol: as §1, §2

Data set [5] has as its target T5, rat IGF-2 (Rattus norvegicus, UniProt P01346).
T5 construct: insulin-like growth factor-2 (IGF-2; a 67 amino-acid polypeptide); purchased IBT AAU100
As to the kind of experiment: Direct immunosorbent assay (ELISA), rat IGF-2. Conditions: up to 50 ng/ml. Format: binding. Here is the method: as §1, §2

Data set [6] has as its target T6, human insulin (Homo sapiens, UniProt P01308).
T6 construct: and human insulin (Roche) is also tested as described above for human IGF-1; purchased Roche
The data set can be described thus: Direct immunosorbent assay (ELISA), human insulin. Format: binding. The settings on record: highest concentration tested 50 ng/ml. Here is the method: as §1, §2

The test system of data set [7] is human serum induced phosphorylation of the IGF-1R. As to the kind of experiment: Cell based IGF-1R phosphorylation ELISA, human serum stimulus. The settings on record: stimulus Human Serum Pooled from Healthy Donors (20%). The protocol: Mouse fibroblast cell lines recombinantly expressing human IGF-1R or human IR-A are maintained in DMEM supplemented with 10% heat inactivated FCS, 1 mM sodium pyrovate, 0.075% sodium bicarbonate, MEM NEAA, and 0.3 µg/ml puromycin at 37° C. and 5% CO2 in a humidified incubator. Cells are detached with trypsin/EDTA, resuspended in growth medium and diluted to 100,000 cells/mL. 100 μL (10,000 cells) are seeded in wells of a sterile 96-well plate and incubated overnight in a humidified incubator at 37° C. and 5% CO2. The cells are then starved with 100 μL/well assay medium (DMEM supplemented with 0.5% heat inactivated FCS; 1 mM sodium pyrovate, 0.075% sodium bicarbonate, and MEM NEAA) and incubated overnight as before. […] 100 μL/well TMB substrate solution (Bender MedSystems, No. BMS406.1000) is added to the wells and incubated for 10 min with agitation, following this the reaction is stopped by adding 100 μL/well 1 M phosphoric acid and the absorbance read using a photometer (OD 450 nm, OD 650 nm as reference). Inhibition of IGF-1R or IR-A phosphorylation IC50 values are determined by graphical analysis.
The level of IGF bioactivity in human serum or plasma samples can also be measured using the IGF-1R phosphorylation cell based ELISA.

A short description of data set [8]: Pharmacokinetic parameters in rats. The settings on record: for AUC(0-72 h): first day of dosing; for t½φ: after last day of dosing with t(n) = 1008 hr. Format: in vivo, Wistar rats. The protocol:
Wistar rats are given five intravenous bolus administrations of 18, 52, and 248 mg/kg antibody every 72 hours. At various time points a blood sample is taken and the human antibody concentration in the plasma is determined by sandwich ELISA.

T2 sequence (P08025 49-118 limits assumed): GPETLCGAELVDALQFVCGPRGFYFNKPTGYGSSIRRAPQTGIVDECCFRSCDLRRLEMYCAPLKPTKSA
T6 sequence (P01308 25-54 limits assumed): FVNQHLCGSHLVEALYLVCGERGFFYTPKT
T6 sequence (P01308 90-110 limits assumed): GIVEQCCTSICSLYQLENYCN
T1 sequence (P05017 49-118 limits assumed): as the sequence (P08025 49-118 limits assumed) above, with S69A counted along it
T5 sequence (P01346 25-91 limits assumed): as the sequence (P01344 25-91 limits assumed) above, with G22S, A32S, V35A, S36N counted along it
T4 sequence (P09535 25-91 limits assumed): as the sequence (P01344 25-91 limits assumed) above, with R3G, S5G, G22S, A32S, V35A, S36N counted along it

B1: 60833: human IgG1 anti-IGF antibody; SEQ ID NO:39 (heavy chain) and SEQ ID NO:40 (light chain) (antibody, listed as Homo sapiens)
heavy: QVELVESGGGLVQPGGSLRLSCAASGFTFTSYWMSWVRQAPGKGLELVSSITSYGSFTYYADSVKGRFTISRDNSKNTLYLQMNSLRAEDTAVYYCARNMYTHFDSWGQGTLVTVSS[human IgG1 constant region not printed]
light: DIVLTQPPSVSGAPGQRVTISCSGSSSNIGSNSVSWYQQLPGTAPKLLIYDNSKRPSGVPDRFSGSKSGTSASLAITGLQSEDEADYYCQSRDTYGYYWVFGGGTKLTVLGQPKAAPSVTLFPPSSEELQANKATLVCLISDFYPGAVTVAWKGDSSPVKAGVETTTPSKQSNNKYAASSYLSLTPEQWKSHRSYSCQVTHEGSTVEKTVAPTECS
In the case of B1, in data set [1], the “binding to mouse IGF-1” value is reported as “comparable cross-reactive binding”. In data set [2], the “binding to rat IGF-1” value is reported as “comparable cross-reactive binding”. Further, the “binding to human IGF-2” value in data set [3] is “comparable cross-reactive binding”. Besides, the “binding to murine IGF-2” value in data set [4] is reported as “comparable cross-reactive binding”. Also, the “binding to rat IGF-2” value in data set [5] is “comparable cross-reactive binding”. Also, the “reactivity to human insulin” value in data set [6] is “no reactivity”. Also, the “IC50 IGF-1R phosphorylation” value in data set [7] turned out to be 0.25 µg/mL. Further, the results for the “AUC(0-72 h)” value in data set [8] (18 mg/kg i.v. bolus), in data set [8] (52 mg/kg i.v. bolus) and in data set [8] (248 mg/kg i.v. bolus) were 15500 µg·h/mL, 40200 µg·h/mL and 120000 µg·h/mL, respectively. Moreover, the values for the t½φ in data set [8] (18 mg/kg), in data set [8] (52 mg/kg) and in data set [8] (248 mg/kg) were 210 h, 197 h and 255 h, respectively.
